# Where “and” joins values, the source holds several entries; their conditions need not be identical. Equal entries are not always repeated. Among all 410,000 compounds or so, about 7,200 (1.8%) were called active. This list was built around the results that the source calls inconclusive (neither active nor inactive); the mix of calls is not that of the screen. Calls come from the whole dose curve; as a rule, active = well fitted activation curve with a large enough effect; inconclusive = small, poorly fitted or top-dose-only effect, or another doubt; inactive = no such curve, though single readings can be large or run the other way. Potencies of inconclusive entries are left out as doubtful fits.
# Assay: qHTS of TDP-43 Inhibitors; note: nearly all actives have a fitted effect of over 50% in size; for growth rescue (activation): % of control where 0% means no effect
# Details: TDP-43 expressing yeast growth rescue, BacTiter-Glo, 24 h; growth rescue (activation): at 46.1 µM (top of the series) unless noted
# Method in brief: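 Galactose-induced TDP-43 yeast, OD600=0.02, compound pinned; 24 hr, 30 deg C; BacTiter-Glo luminescence for growth. Inhibitors of TDP-43 toxicity read as activators.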
# Potency is the fitted concentration of half-maximal effect; tags give direction and shape of the fitted curve.
Structure (SMILES),Potency,growth rescue (activation)
CCOC(=O)/C=C/C(=O)N1CCc2ccccc21,"inconclusive [activator, partial curve]",
COc1ccccc1C(=O)OCC(=O)c1cccc([N+](=O)[O-])c1,"inconclusive [activator, single point]",
Cc1onc(-c2ccccc2)c1C(=O)NC1CCC(C)CC1 (stereo not drawn),"inconclusive [activator, partial curve, poor fit]",
Cc1ccc2nc(NC(=O)c3ccccc3F)sc2c1,"inconclusive [activator, full curve, poor fit]",
COCCOC(=O)c1c(C)oc2ccc(OC(=O)c3ccco3)cc12,"inconclusive [activator, full curve, poor fit]",
FC(F)(F)c1cccc(Sc2nc(-c3ccccc3)nnc2C(F)(F)F)c1,,inactive: 23.3%
COc1cccc(N2CCN(C3CC(=O)N(c4ccc(F)c(Cl)c4)C3=O)CC2)c1 (stereo not drawn),active: 12.6 µM,
O=S(=O)(c1ccccc1)N(CC(F)(F)F)c1ccc(C(O)(C(F)(F)F)C(F)(F)F)cc1,active: 22.4 µM,
Cn1c(SCC(=O)c2ccccc2)nnc1-c1cccnc1,"inconclusive [activator, partial curve]",
CCOc1cc(/C=C2\C(=N)N3N=C(S(=O)(=O)CC)SC3=NC2=O)ccc1OC(=O)c1ccco1,,inactive: 20.2%
COC(=O)CSc1ncnc2c1cnn2-c1ccc(C)cc1C,active: 17.8 µM,
COc1ccc(CNC(=O)CCn2c(=O)c3cccn3c3ccc(F)cc32)cc1,"inconclusive [activator, single point]",
CCc1ccc(-c2nn(-c3ccccc3)cc2C2SCC(=O)N2Cc2ccco2)cc1 (stereo not drawn),"inconclusive [activator, single point]",
Cc1ccc(-c2nnc(SCC(=O)N3CCOCC3)nc2-c2ccc(C)cc2)cc1,"inconclusive [activator, partial curve]",
COc1ccc(-n2cnc3cc(C(=O)NC4CCCC4)ccc32)cc1,active: 28.2 µM and active: 17.8 µM,
CCOC(=O)c1ccc(NC(=O)CSc2nnc3c4ccccc4n(CC)c3n2)cc1,"inconclusive [activator, partial curve]",
c1ccc2c(CSc3ncnc4nc[nH]c34)cccc2c1,"inconclusive [activator, partial curve, poor fit]",
CCOCCCNC(=S)N1CCCN(c2nc3cc(C)c(C)cc3cc2C#N)CC1,"inconclusive [activator, single point]",
CC(C)(C)c1ccc(C(=O)NCC(c2ccco2)S(=O)(=O)c2ccc(F)cc2)cc1 (stereo not drawn),"inconclusive [activator, single point]",
O=C(CCC(=O)N1CCN(C(=O)c2ccco2)CC1)c1ccc(F)cc1,,inactive: -19.3%
c1ccc(-c2nnc(CSc3nnc(-c4cccs4)o3)o2)cc1,"inconclusive [activator, single point]",
C#C[C@]1(O)CC[C@H]2[C@@H]3CCc4cc(O)ccc4[C@H]3CC[C@@]21C,"inconclusive [activator, single point]",
COc1ccc(C2CC(=O)N(C)c3ccccc3S2)cc1OC (stereo not drawn),"inconclusive [activator, single point]",

Structure (SMILES),Potency,growth rescue (activation)
CC1(C)Cc2c(C#N)c(SCCOc3ccccc3)nc(N3CCOCC3)c2CO1,"inconclusive [activator, partial curve]",
O=C(CSc1cnc2ccccc2n1)c1ccc(F)cc1,active: 17.8 µM,
COc1cccc(C(=O)NC2CCN(C(=O)N3c4ccccc4Sc4ccccc43)CC2)c1,"inconclusive [activator, single point]",
O=C(O)c1cc(N=Nc2c(O)[nH]c3ccc([N+](=O)[O-])cc23)ccc1Cl,,inactive: -7.64%
COc1cc2c(cc1OC)CN(C(=O)/C=C/c1cc(OC)c(OC)c(OC)c1)CC2,,inactive: -4.26%
C=CCn1c(SCc2ccccc2C#N)nnc1-c1ccccc1O,"inconclusive [activator, single point]",
O=C(NCCCc1ccccc1)c1ccc(Br)o1,"inconclusive [activator, partial curve]",
C=CCOc1ccc(C[C@H](N)C(=O)NC[C@H]2O[C@@H](n3cnc4c(N)ncnc43)[C@H](O)[C@@H]2O)cc1,"inconclusive [activator, partial curve]",
COc1cc(S(=O)(=O)N2CCN(c3ccccc3F)CC2)ccc1Cl,"inconclusive [activator, partial curve]",
COc1ccccc1CNC(=O)CCCN1C(=O)CSc2c1c(C)nn2-c1ccccc1,"inconclusive [activator, full curve, poor fit]",
COc1ccccc1NC(=S)NCC1CCCCC1,"inconclusive [activator, partial curve]",
Cc1cccc(-c2nc(CNC(=O)c3ccco3)cs2)c1,"inconclusive [activator, single point]",
Cc1ccc(Sc2c(C)nn(C(=O)c3ccc(Cl)cc3)c2C)cc1,"inconclusive [activator, single point]",
Cc1cccc(/C=N/n2c(-c3cc(-c4ccccc4)n[nH]3)n[nH]c2=S)c1,"inconclusive [activator, full curve]",
COc1ccc(-c2nc(NC(=O)c3[nH]c(C)c(C(C)=O)c3C)sc2C)cc1,active: 35.5 µM,
CSc1ccccc1C(=O)NC1CCCN(c2ccc(C(F)(F)F)cn2)C1 (stereo not drawn),"inconclusive [activator, partial curve]",
CCOC(=O)c1cccc(NS(=O)(=O)c2cc(-c3cnc(C4CC4)o3)ccc2C)c1,active: 20 µM,
CCN(CC)c1nc2ccccc2nc1-n1nc(C)cc1C,,inactive: -15.2%
O=C(N/N=C/C=C/c1ccccc1)c1ccccc1Br,"inconclusive [activator, single point]",
Cc1ccsc1CN(C(=O)c1ccc(OCC(C)C)cc1)C1CCS(=O)(=O)C1 (stereo not drawn),"inconclusive [activator, full curve, poor fit]",
COc1ccc(-c2cc(C3CC3)nc3sc(C#N)c(N)c23)cc1,,inactive: 5.54%
CCC(C)(C)NC(=O)/C=C/c1cccs1,"inconclusive [activator, full curve]",
COc1ccc(-c2noc(-c3csc([C@@H]4O[C@H](CO)[C@H](O)[C@H](O)[C@H]4O)n3)n2)cc1OC,"inconclusive [activator, full curve, poor fit]",

Structure (SMILES),Potency,growth rescue (activation)
C[C@H](CO)N1C[C@H](C)[C@H](CN(C)S(=O)(=O)c2ccccc2)Oc2ccc(NC(=O)NC3CCCCC3)cc2CC1=O,,inactive: -9.34%
COc1cccc(-c2nn(C)c3sc(C(=O)N4CCOCC4)cc23)c1,"inconclusive [activator, partial curve]",
COc1ccc(F)cc1S(=O)(=O)NCC(c1ccco1)S(=O)(=O)c1cccs1 (stereo not drawn),"inconclusive [activator, partial curve]",
C[n+]1cnn2c1SCC1(COC1)C2,,inactive: -17%
Cc1cc(NC(=O)CCSc2ccccc2)ccc1Br,"inconclusive [activator, single point]",
COc1ccc(OC)c(NC(=O)C(=O)c2cn(CC(=O)N3CCCC3)c3ccccc23)c1,,inactive: 4.36%
CCN(CC)C(=O)c1cc2cc([N+](=O)[O-])ccc2s1,"inconclusive [activator, partial curve]",
Cc1ccc2nc(-c3ccc(Cl)cc3)c(Cc3cccc(Cl)c3)n2c1,"inconclusive [activator, single point]",
COc1ccccc1NC(=O)COC(=O)c1ccc2c(c1)nc(C)n2-c1ccccc1,"inconclusive [activator, partial curve]",
COCCCNC(=O)c1csc([C@@H]2C[C@H](O)[C@@H](CO)O2)n1,"inconclusive [activator, full curve, poor fit]",
COc1cc(CNc2ncnc3c2ncn3[C@H]2CN(Cc3ccc(-c4ccccc4)cc3)C[C@@H](CO)O2)cc(OC)c1OC,,inactive: 9.01%
Cn1c(=O)c(Sc2ccc(Cl)cc2)c(O)c2ccccc21,"inconclusive [activator, single point]",
COC(=O)c1ccc(N2C(=O)CC(N3CCOCC3)C2=O)cc1 (stereo not drawn),"inconclusive [activator, single point]",
CN1CCN(C(=O)c2ccc3c(=O)n4c(nc3c2)CCCCC4)CC1,"inconclusive [activator, partial curve, poor fit]",
O=C1OC(c2ccccc2)=NC12CC2c1ccc(Cl)cc1 (stereo not drawn),"inconclusive [activator, single point]",
Clc1ccc2nc(-c3cccc(Br)c3)c(Cc3ccccc3)n2c1,"inconclusive [activator, partial curve]",
Cn1cc(CNC(=O)Nc2ccc3c(c2)OCO3)cn1,,inactive: 8.81%
Cc1cc(Cl)cc(C)c1OCCCCCn1ccnc1,,inactive: -24.5%
CCn1c(CNc2ccc(Cl)cc2)nnc1SCC(=O)OC1CCCCC1,"inconclusive [activator, single point]",
Cc1nc2ncnn2c(C)c1CCC(=O)N1CCN(c2ccc(F)cc2)CC1,,inactive: -2.95%
COc1cccc(CNC(=O)N2CCc3c(sc4c3CCCC4)C2c2ccc(F)cc2)c1 (stereo not drawn),,inactive: 6.52%
CCCCNC(=S)N1CCn2cccc2C1c1ccc(F)cc1 (stereo not drawn),active: 15.8 µM,

# Reference: PubChem BioAssay AID652104 (National Center for Advancing Translational Sciences (NCATS), 2013)
